Each structure is given as a SMILES string. Values joined by “and” are separate entries in the source; they are usually repeats but may differ in a detail not shown here. Equal values may be shown once. Where a name gives a salt, the structure may show the parent alone. The whole screen tested about 5,800 compounds, of which about 620 (11%) showed activity.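 Rule for the calls: active = score above a cut-off or among the top three wells of a plate; in these data no inactive exceeds 0.85.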 The list shows a part of the results, in another mix than the full data. A value given as a limit tells only on which side of the number the result lay.

The assay deals with primary human hepatic stellate cells (donor 1). The assay can be described thus: scaled lipid accumulation score (0 = DMSO-like, 1 = nortriptyline-like); higher = stronger HSC inactivation (lipid re-accumulation), active = hit call of the paper. Particulars: 48 h.
The mark [1] stands for this setting: library stock concentration: 10 mM.
The mark [2] stands for this setting: library stock concentration: 80 uM.
Setting [3] is: library stock concentration: 400 uM.
[4] abbreviates: library stock concentration: 2 mM.
The mark [5] stands for this setting: library stock concentration: 3.33 mM.
[6] abbreviates: library stock concentration: 1 mM.
[7] abbreviates: library stock concentration: 5.7 mM.

As for `CCCn1c(=O)c2[nH]c(C3CCCC3)nc2n(CCC)c1=O`, the “scaled lipid accumulation score” value under setting [1] is inactive: 0.039.
Still for that read-out and setting: with `CCCn1c(=O)c2[nH]c(C3CCCC3)nc2n(CCC)c1=O` [8-Cyclopentyl-1,3-dipropylxanthine] the figure was inactive: 0.072; with `Cc1ccc(S(=O)(=O)/C=C/C#N)cc1`, active: 0.931.
As to `Nc1ccc(-c2ccc3ncc4ccc(=O)n(-c5cccc(C(F)(F)F)c5)c4c3c2)cn1` [Torin2], the “scaled lipid accumulation score” value by setting is: under setting [2], inactive: ≤ 0; under setting [3], inactive: ≤ 0; under setting [4], inactive: ≤ 0; under setting [1], inactive: 0.042.
As for `Nc1ccc(-c2ccc3ncc4ccc(=O)n(-c5cccc(C(F)(F)F)c5)c4c3c2)cn1` [Torin 2], the “scaled lipid accumulation score” value under setting [5] is inactive: ≤ 0 and the “scaled lipid accumulation score” value under setting [1] is inactive: 0.002.
For `Cc1nc2ccccn2c(=O)c1CCN1CCC(C(=O)c2ccc(F)cc2)CC1` [Pirenperone], the “scaled lipid accumulation score” value was inactive: 0.206. In addition, the “scaled lipid accumulation score” value (library stock concentration: 5.1 mM) was inactive: ≤ 0. Further, the “scaled lipid accumulation score” value under setting [1] was inactive: ≤ 0 and inactive: 0.072.
With `Cc1nc2ccccn2c(=O)c1CCN1CCC(C(=O)c2ccc(F)cc2)CC1`, the “scaled lipid accumulation score” value under setting [1] was inactive: 0.203.
`Cl.O=C(CCCCCN1CCN(c2ccccc2-c2ccccc2)CC1)NC1CCCc2ccccc21` (configuration not stated) [LP 12 hydrochloride hydrate]: under setting [1], the “scaled lipid accumulation score” value is active: 0.898.
For `CSc1nc2cc(Cl)c(Oc3cccc(Cl)c3Cl)cc2[nH]1` [Triclabendazole], the “scaled lipid accumulation score” value under setting [5] is inactive: ≤ 0 and the “scaled lipid accumulation score” value under setting [1] is inactive: ≤ -0.001.
`CSc1nc2cc(Cl)c(Oc3cccc(Cl)c3Cl)cc2[nH]1`: the “scaled lipid accumulation score” value under setting [1] is inactive: ≤ 0.
As for `N[C@@H](Cn1ccc(=O)n(Cc2ccccc2C(=O)O)c1=O)C(=O)O`, under setting [1], the “scaled lipid accumulation score” value was inactive: ≤ -0.001 and inactive: 0.039.
Turning to `CC[P](CC)(CC)=[Au][S][C@@H]1O[C@H](COC(C)=O)[C@@H](OC(C)=O)[C@H](OC(C)=O)[C@H]1OC(C)=O` [Auranofin], the “scaled lipid accumulation score” value (library stock concentration: 2.9 mM) is active: 0.86.
On to `CCCCC[C@H](O)/C=C/[C@@H]1[C@@H](C/C=C\CCCCCC(=O)O)[C@@H](O)C[C@H]1O` [1a,1b-dihomo Prostaglandin F2.alpha.], for which the “scaled lipid accumulation score” value under setting [6] was inactive: ≤ 0.
As for `CCCCC[C@H](O)/C=C/[C@H]1[C@H](O)CC(=O)[C@@H]1C/C=C\CCCC(=O)O` [Dinoprostone], the “scaled lipid accumulation score” value under setting [7] is inactive: ≤ -0.006.
On to `CCCCC[C@H](O)/C=C/[C@H]1[C@H](O)CC(=O)[C@@H]1C/C=C\CCCC(=O)O` [Prostaglandin  E2], for which the “scaled lipid accumulation score” value under setting [6] is inactive: ≤ -0.021.
Take `CCCCC[C@H](O)/C=C/[C@H]1[C@H](O)CC(=O)[C@@H]1C/C=C\CCCC(=O)O` [Prostaglandin E2]: the “scaled lipid accumulation score” value by setting is: under setting [6], inactive: ≤ 0; under setting [1], inactive: ≤ -0.001.
On to `CC1(C)S[C@@H]2[C@H](NC(=O)[C@H](N)c3ccccc3)C(=O)N2[C@H]1C(=O)O` [Ampicillin trihydrate], for which the “scaled lipid accumulation score” value was inactive: 0.123. Moreover, the “scaled lipid accumulation score” value under setting [7] was inactive: 0.028.
In the case of `CC1(C)S[C@@H]2[C@H](NC(=O)[C@H](N)c3ccccc3)C(=O)N2[C@H]1C(=O)O` [Ampicillin sodium], the “scaled lipid accumulation score” value is inactive: ≤ 0 under setting [5]; inactive: ≤ -0.001 (library stock concentration: 5.4 mM); inactive: ≤ -0.001 and inactive: ≤ 0 under setting [1].
Regarding `CC1(C)S[C@@H]2[C@H](NC(=O)[C@H](N)c3ccccc3)C(=O)N2[C@H]1C(=O)O` [Ampicillin Sodium], under setting [1], the “scaled lipid accumulation score” value was inactive: ≤ 0.
Regarding `CC1(C)S[C@@H]2[C@H](NC(=O)[C@H](N)c3ccccc3)C(=O)N2[C@H]1C(=O)O` [Ampicillin Trihydrate], the “scaled lipid accumulation score” value by setting is: under setting [5], inactive: ≤ 0; under setting [1], inactive: ≤ -0.001.
Turning to `CN(C)C(=O)n1nnnc1Cc1ccc(-c2ccccc2)cc1`, under setting [1], the “scaled lipid accumulation score” value is inactive: 0.554.
Still for that read-out and setting: with `CCOc1cc(C(=O)Nc2ccc(Cl)c(-c3nc4ccccc4[nH]3)c2)cc(OCC)c1OCC` the figure was inactive: 0.438; with `O=C(/C=C/c1ccccc1)c1ccc(O[C@@H]2O[C@H](CO)[C@@H](O)[C@H](O)[C@H]2O)cc1O` [2',4'-dihydroxychalcone 4'-glucoside], inactive: 0.22.
In the case of `COc1ccc(-c2ccc3ncc4c(c3c2)n(-c2ccc(N3CCNCC3)c(C(F)(F)F)c2)c(=O)n4C)cn1.O=C(O)/C=C\C(=O)O`, under setting [3], the “scaled lipid accumulation score” value was active: 0.909.
`C=C[C@H]1CN2CC[C@H]1C[C@H]2[C@H](O)c1ccnc2ccc(OC)cc12` [Quinine]: the “scaled lipid accumulation score” value (library stock concentration: 6.2 mM) is inactive: 0.205.
As for `C=C[C@H]1CN2CC[C@H]1C[C@H]2[C@H](O)c1ccnc2ccc(OC)cc12` [Quinine HCl Dihydrate], the “scaled lipid accumulation score” value under setting [5] was inactive: 0.077 and the “scaled lipid accumulation score” value under setting [1] is inactive: 0.31.
As for `C=C[C@H]1CN2CC[C@H]1C[C@H]2[C@H](O)c1ccnc2ccc(OC)cc12` [Quinine sulfate], the “scaled lipid accumulation score” value reads like this: (library stock concentration: 4.7 mM) inactive: 0.308; under setting [1], inactive: ≤ 0 and inactive: 0.364.
For the compound `Cl.N#Cc1ccc2[nH]cc(CCCCN3CCN(c4ccc5oc(C(N)=O)cc5c4)CC3)c2c1` [Vilazodone HCl], under setting [1], the “scaled lipid accumulation score” value was active: 1.1.
`O=C(O)c1cc(=O)[nH]c(=O)[nH]1` [Orotic acid (6-Carboxyuracil)]: the “scaled lipid accumulation score” value by setting is: under setting [5], inactive: ≤ 0; under setting [1], inactive: ≤ 0.
With `O=C(O)c1cc(=O)[nH]c(=O)[nH]1`, the “scaled lipid accumulation score” value under setting [1] is inactive: ≤ 0.
On the same count and under the same terms, with `O=c1n(CCCN2CCN(c3cccc(Cl)c3)CC2)nc2ccccn12` the figure was inactive: ≤ 0.
Turning to `O=c1n(CCCN2CCN(c3cccc(Cl)c3)CC2)nc2ccccn12` [Trazodone hydrochloride], the “scaled lipid accumulation score” value is inactive: 0.051. Moreover, the “scaled lipid accumulation score” value (library stock concentration: 4.9 mM) was inactive: ≤ 0. Under setting [1], the “scaled lipid accumulation score” value is inactive: 0.251 and inactive: 0.131.
Regarding `Cc1ccccc1C(C(=O)NC1CCCCC1)N(C(=O)Cn1ccnc1C)c1cccc(F)c1` (configuration not stated), the “scaled lipid accumulation score” value was inactive: ≤ -0.009 under setting [5] and inactive: ≤ 0 under setting [1].
Turning to `Oc1ccc(-c2nc(-c3ccc(F)cc3)c(-c3ccncc3)[nH]2)cc1`, the “scaled lipid accumulation score” value under setting [2] is inactive: ≤ -0.001; the “scaled lipid accumulation score” value under setting [3] was inactive: ≤ -0.001 and inactive: 0.106; the “scaled lipid accumulation score” value under setting [4] is inactive: 0.003 and inactive: 0.132; the “scaled lipid accumulation score” value under setting [5] was inactive: ≤ 0; the “scaled lipid accumulation score” value (library stock concentration: 15.1 mM) was inactive: 0.239.
Take `O=C(Nc1ccc(S(=O)(=O)Nc2ccccc2Cl)c(Cl)c1)c1ccccn1`: the “scaled lipid accumulation score” value is, setting by setting: under setting [5], inactive: ≤ -0.009; under setting [1], inactive: 0.077.
On to `CCC(NC(C)C)C(O)c1ccc(O)c2[nH]c(=O)ccc12` (configuration not stated) [Procaterol hydrochloride], for which the “scaled lipid accumulation score” value reads like this: (library stock concentration: 6.1 mM) inactive: ≤ 0; under setting [1], inactive: ≤ -0.006.
Consider `CCC(NC(C)C)C(O)c1ccc(O)c2[nH]c(=O)ccc12` (configuration not stated) [Procaterol hcl], for which, under “library stock concentration: 6.9 mM”, the “scaled lipid accumulation score” value was inactive: ≤ -0.006.
For the compound `O=C(O)c1ccc2cc(-c3ccc(O)c(C45CC6CC(CC(C6)C4)C5)c3)ccc2c1`, under setting [1], the “scaled lipid accumulation score” value is inactive: ≤ -0.006.
Turning to `O=C1C(SCCO)=C(SCCO)C(=O)c2ccccc21`, the “scaled lipid accumulation score” value (library stock concentration: 16.1 mM) is active: 1.05.
Regarding `CC(C)C[C@H](NC(=O)N1CCCCCC1)C(=O)N[C@H](Cc1cn(C)c2ccccc12)C(=O)N[C@H](Cc1ccccn1)C(=O)O`, under setting [1], the “scaled lipid accumulation score” value is inactive: ≤ -0.006.
Regarding `OCCn1cc(-c2cnc3nnn(Cc4ccc5ncccc5c4)c3n2)cn1`, the “scaled lipid accumulation score” value is, setting by setting: under setting [2], inactive: 0.035; under setting [3], inactive: ≤ -0.005; under setting [4], inactive: ≤ -0.009 and inactive: ≤ -0.005; under setting [5], inactive: ≤ 0; under setting [1], inactive: ≤ 0 and inactive: ≤ -0.009 and inactive: ≤ -0.005.
As to `CC1=C(/C=C/C(C)=C/C=C/C(C)=C/CO)C(C)(C)CCC1` [Retinol], the “scaled lipid accumulation score” value (library stock concentration: 7 mM) was inactive: ≤ 0 and the “scaled lipid accumulation score” value under setting [1] was inactive: ≤ 0.
On to `Nc1nc2[nH]c(=O)[nH]c2c(=O)[nH]1` [8-hydroxy Guanine (hydrochloride)], for which the “scaled lipid accumulation score” value under setting [6] is inactive: ≤ 0.
As to `CCOc1cc2ncc(C#N)c(Nc3ccc(F)c(Cl)c3)c2cc1NC(=O)C=CCN(C)C` [Pelitinib (EKB-569)], under setting [5], the “scaled lipid accumulation score” value was active: 1.01.
For the compound `C/C=C(/C(=C/C)c1ccc(O)cc1)c1ccc(O)cc1` [Dienestrol], the “scaled lipid accumulation score” value is inactive: ≤ 0. Besides, the “scaled lipid accumulation score” value (library stock concentration: 7.5 mM) was inactive: 0.181. Also, under setting [1], the “scaled lipid accumulation score” value was inactive: ≤ 0.
`Cc1ncc([N+](=O)[O-])n1CC(C)O` (configuration not stated) [Secnidazole]: the “scaled lipid accumulation score” value is, setting by setting: under setting [5], inactive: 0.012; under setting [1], inactive: ≤ 0 and inactive: ≤ -0.027.
`Cc1ncc([N+](=O)[O-])n1CC(C)O` (configuration not stated) [1-(2-Methyl-5-nitro-imidazol-1-yl)-propan-2-ol]: the “scaled lipid accumulation score” value under setting [1] is inactive: ≤ 0.
For `O=C(O)c1ccccc1OP(=O)(O)O` [Fosfosal], the “scaled lipid accumulation score” value is inactive: ≤ 0. The “scaled lipid accumulation score” value under setting [1] is inactive: ≤ 0.
Consider `CC(C)CN1CCC(CNCc2ccc(C#CC(C)(C)O)s2)CC1`, for which, under setting [1], the “scaled lipid accumulation score” value was active: 0.671.
Regarding `COc1ccc2cc([C@H](C)C(=O)O)ccc2c1` [Naproxen], the “scaled lipid accumulation score” value is inactive: ≤ 0. Further, under setting [5], the “scaled lipid accumulation score” value is inactive: ≤ 0. Besides, for the setting “library stock concentration: 8.7 mM”, the “scaled lipid accumulation score” value was inactive: ≤ -0.006. Further, the “scaled lipid accumulation score” value under setting [1] was inactive: ≤ 0.
On to `COc1ccc2cc([C@H](C)C(=O)O)ccc2c1`, for which, under setting [1], the “scaled lipid accumulation score” value is inactive: ≤ 0.
As for `COc1ccc2cc([C@H](C)C(=O)O)ccc2c1` [(-)-Naproxen sodium], the “scaled lipid accumulation score” value under setting [1] was inactive: ≤ -0.055.
Regarding `COc1ccc2cc([C@H](C)C(=O)O)ccc2c1` [(S)-Naproxen], under setting [6], the “scaled lipid accumulation score” value is inactive: ≤ 0.
For the compound `COc1ccc2cc([C@H](C)C(=O)O)ccc2c1` [Naproxen sodium], under setting [1], the “scaled lipid accumulation score” value was inactive: ≤ -0.001.
As for `C[C@]12CCC(=O)C=C1[C@@H]1C[C@@H]1[C@H]1[C@@H]3[C@@H]4C[C@@H]4[C@@]4(CCC(=O)O4)[C@@]3(C)CC[C@@H]12` [Drospirenone], the “scaled lipid accumulation score” value is inactive: ≤ 0 under setting [5] and inactive: ≤ 0 under setting [1].
In the case of `C[C@]12CCC(=O)C=C1[C@@H]1C[C@@H]1[C@H]1[C@@H]3[C@@H]4C[C@@H]4[C@@]4(CCC(=O)O4)[C@@]3(C)CC[C@@H]12`, the “scaled lipid accumulation score” value under setting [1] was inactive: ≤ 0.
With `Nc1cc(N2CCCCC2)nc(N)[n+]1[O-]` [Minoxidil], the “scaled lipid accumulation score” value is inactive: 0.015. Besides, where the note is “library stock concentration: 9.6 mM”, the “scaled lipid accumulation score” value was inactive: ≤ -0.006 and inactive: ≤ -0.001. Further, the “scaled lipid accumulation score” value under setting [1] is inactive: ≤ 0.
On to `Nc1ncnc2c1ncn2[C@@H]1O[C@H](COP(=O)(O)OP(=O)(O)OP(=O)(O)OP(=O)(O)OC[C@@H]2O[C@H](n3cnc4c(N)ncnc43)C(O)[C@@H]2O)[C@H](O)C1O` (some centres not stated) [P1,P4-Di(adenosine-5')tetraphosphate triammonium], for which the “scaled lipid accumulation score” value under setting [1] was inactive: ≤ -0.07.

These data come from the supplement of paper PMC9135407.
